According to the supplement of paper PMC3334620:
In all, about 33,000 sequences were measured (“E-score (-0.5 to 0.5)”: median about -0.013, highest 2% from about 0.3 on). Some of the results follow.

The sequences below were run against T1, Msn1 (UniProt P22148) (assay: PBM E-score (8-mer binding enrichment) (E-score (-0.5 to 0.5)); higher = stronger / more preferred TF binding; most listed sequences are background and not binding sites). Settings: protein concentration: 200 nM; construct: GST-full length.
T1 sequence: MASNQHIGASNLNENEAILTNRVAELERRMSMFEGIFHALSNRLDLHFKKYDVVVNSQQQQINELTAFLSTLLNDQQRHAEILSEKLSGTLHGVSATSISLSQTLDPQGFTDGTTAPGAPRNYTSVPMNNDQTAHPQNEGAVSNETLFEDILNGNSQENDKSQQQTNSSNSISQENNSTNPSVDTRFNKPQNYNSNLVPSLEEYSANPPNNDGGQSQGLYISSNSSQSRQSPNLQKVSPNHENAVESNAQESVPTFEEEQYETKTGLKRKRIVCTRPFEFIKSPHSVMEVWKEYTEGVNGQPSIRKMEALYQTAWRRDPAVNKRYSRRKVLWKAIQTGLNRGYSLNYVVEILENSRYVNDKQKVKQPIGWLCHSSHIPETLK
Procedure: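 Universal 'all 10-mer' protein binding microarrays (Agilent AMADID 015681) probed with GST-tagged S. cerevisiae TFs (full-length or DBD) made by in vitro transcription/translation (PURExpress), about 100-200 nM. Bound TF was detected with fluorescent anti-GST. Each ungapped 8-mer (which stands for itself and its reverse complement) is scored by the PBM enrichment score (E-score), a modified Wilcoxon-Mann-Whitney statistic from -0.5 to +0.5, computed with the Universal PBM Analysis Suite. Scale: above 0.35 generally sequence-specific binding.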

Sequence	PBM E-score
ACCCGTGG	-0.192
ATCGATAA	0.169
AACCTACG	-0.134
CAATATGG	-0.0474
CTCGACAA	0.0867
GTTTTGGA	0.042
TATGGAGA	0.0848
CCTGAATC	-0.0296
GAATGATC	0.0556
CGTTCGTA	0.0362
ACGTACCG	0.0256
AGGTACCT	0.0194
CGTAAGAG	-0.0677
GCTAAGAA	-0.238
ACCATACA	-0.0109
GTTGTTAA	0.334
GCTATAAA	-0.0244
CTTAGCAC	-0.0653
GACGAAAA	0.291
AGCCGGCT	-0.3
CTTAGCCC	-0.0375
AGGATCTG	-0.0607
AGTTAGTA	0.0589
ACTGCTAC	-0.11
AGCATCGG	-0.0359

Sequence	PBM E-score
CGTTAGCA	0.0467
GGTTTCCA	-0.00163
ACGGGCGG	-0.141
ATTTCCTA	0.165
TCAGCAAA	0.0996
ATCCGTCA	0.00708
AAGTTTCT	0.0733
TCGACTCA	0.0627
CAAGCCGG	0.0981
ACGCCTAT	-0.0241
AAGCTTTC	0.0444
GAGAGCGC	-0.358
CGCGACCG	0.0606
AGTTCGGG	0.259
GCATCGTA	-0.157
GCAGTCTA	-0.142
GAAATTAC	0.109
GCAGCTAA	-0.194
CGCAGTAA	-0.0108
ATCTGCAG	0.0132
GCGAACGC	-0.139
CAGCTTGC	-0.107
CTAGCAGC	-0.0169
CACTGTTC	-0.107
TAAGTTCA	-0.00232

Sequence	PBM E-score
ACTAGTTC	0.0576
ACCCCTTG	-0.23
CCAGATTA	0.00634
ATGTTACA	0.122
ATATACAG	0.234
AAAAGTAC	0.366
GGTTAGTA	-0.0399
GTACCTCA	0.177
CTAGGCAC	0.0117
CTCGCGAA	-0.0296
AAAGGAAG	-0.069
GCCTGATA	-0.148
AGCATCAT	0.0126
ACATACCG	0.114
AACTCGCT	0.0996
TACGATAA	0.0522
CAAATTTC	0.184
AGCTCGCA	-0.0442
GACCACTC	-0.128
GAGAGCCC	-0.469
ACAGTCTG	-0.0157
GAGCCAGA	0.0645
CGGATAGC	0.0301
TCGCCCGA	0.00922
GATTTGAA	0.185

Sequence	PBM E-score
CCGTCAAA	0.0733
TACTCAGA	0.105
ACATCGAT	0.189
ATTAGAGC	0.0959
ACTAAGGA	0.0315
GTGGAGGA	-0.168
CTGACTGC	-0.211
GGAAATTA	0.183
AGCTGGTA	-0.0342
CTCAGTCA	-0.173
GACACGCC	0.324
AATCACCA	0.0292
ACAGGCCC	-0.192
AACTAAAT	0.0655
CCACTTTC	-0.0357
CGAATGGC	0.041
TCGGCCAA	-0.00534
CAGGGACG	0.165
TCGTGCCA	-0.106
TAGCTCCA	-0.0301
AGTGGCGG	-0.173
CGAACCGA	0.113
CAGCCCAA	-0.0322
CCCACTGC	-0.155
GGCCACGA	-0.0736

Sequence	PBM E-score
GTAACGAC	0.0121
TACCAAAA	-0.00284
CATTCTTC	-0.0454
AGATACGA	0.109
ATGGGCTG	-0.146
CACTAGCA	-0.0794
CTCTTAGA	0.0286
AGAAAAAC	-0.0225
TCGTCACA	-0.0592
ATTACGAG	0.0183
CCGGTCCC	-0.191
AGCGTGGG	-0.127
AATTAGCC	-0.0127
AGATTATG	-0.00564
CCATCCCC	-0.313
ACATCATA	0.221
CACATGCG	0.095
CCGTGAAA	0.228
CTTTACTA	0.2
CGGGATCC	-0.00623
ACGGTTTG	-0.0669
AACTTGCA	-0.11
GCCCCTGA	-0.292
GTGAGCCA	0.00843
CAATGGAA	0.059

Sequence	PBM E-score
ATAAATAA	0.291
ATAAGTAA	0.149
CCTCTTCA	-0.0628
CACTACGA	0.137
GAAGCTGA	-0.0495
GGATTAGA	-0.0602
AGATAACG	0.0416
AGTTTTTG	0.147
GATTTACA	0.144
GCACCGAC	0.00089
CACTGTAC	-0.124
CATAATGC	-0.0764
ACGTTGCT	-0.0851
GGCAGGAC	0.263
GAACGACA	0.203
GCCTCCCA	-0.232
CGTTACCA	-0.0457
CTTATTTC	0.246
ATTACTTA	-0.0141
CCGTACCA	0.145
CCCCGACG	-0.0676
CGGTGACA	0.215
AACATGTG	0.0694
CATAGCAC	-0.0173
CTAAACAG	-0.0999

Sequence	PBM E-score
AACCCGCG	0.127
CTAAAGAG	-0.0254
CTAGACGC	-0.232
GAATCATA	0.00846
AAAAGTGC	0.0506
CATCACTA	0.0677
GTCATAAC	0.114
CCGGTTTA	0.0607
AGGCCAGA	-0.0204
CCACCGGG	-0.321
CATTTAAA	0.227
TTACTGAA	0.173
GTACACGA	0.28
CCGTATGA	0.0752
ATAGATAC	0.149
CGCGCTGA	-0.131
AGCAGTCC	-0.161
GACATTCA	0.449
GACAAATC	0.473
CTAAGACA	0.302
CCGGTTTC	0.0262
GAAAAAAA	0.112
AGGCCCTG	-0.187
CAAAAGGG	0.03
TCTGCTCA	-0.0709

Sequence	PBM E-score
GAAAAGAC	0.171
CGCCTTAC	-0.0811
GAAATGCA	0.195
GCGCTGCC	-0.316
CAATCGAG	-0.14
CATTCCCC	-0.022
ACCATGTC	0.218
CGGTTTTA	0.0469
CTGCTATA	0.157
GCGTGACA	0.203
CCTAAGCA	-0.105
CGCTGGAA	-0.188
GGAAGTAA	-0.0103
CCGAATTC	0.127
GGTAATTA	0.0347
GACATGAC	0.335
CGACGGCA	-0.188
AAGCTCTA	0.149
ATCACGGG	-0.143
ATGACTTC	0.0818
GACGGCAA	0.0448
CGCAAGCC	-0.0744
ACTTTCCT	-0.25
ACGCCTGA	0.0739
GTGACTTA	0.122

Sequence	PBM E-score
CATTTGGC	0.0384
AAGGTAAG	-0.0721
TATGCGCA	-0.104
GGCAGGGA	-0.161
CAATCGCG	-0.0643
ACGCGACC	0.00523
TAACCCAA	0.144
CGTCGAGC	-0.0162
TCATGGCA	-0.0998
AGTAAGGA	0.0701
CCCAATTC	0.17
CAATAAGC	0.00863
AGTAGTAC	0.23
GGCATACC	-0.216
ATATGAGC	-0.11
AACCGAGT	-0.16
CAAAGCTG	0.123
AAGGTTAT	-0.0984
CCTGCGTA	-0.0595
AACTGTTA	0.11
GGCAAAGA	0.0839
GAGTGGCC	-0.224
AATGGTTC	0.0804
ACACGTCG	0.0201
AGTGCGTG	0.0541

Sequence	PBM E-score
GCATCGCC	-0.0362
GACCGAAC	-0.0277
ATGAGACA	0.358
AGATCATA	0.14
CCGCAAGA	0.0897
ACAGAAAA	0.19
AAACTCCT	-0.191
AATATAGA	0.136
GCATAGCA	-0.118
AAGTTTAT	0.217
AGGTGCAC	-0.0657
GACCTTGC	-0.244
GGGGTCTA	-0.175
GTATCCCA	-0.00874
CACCCATG	-0.141
CACTACTA	-0.0134
AAAGGCAA	0.117
ATTCGCAA	0.0173
CGAATGAC	0.258
GTAAAGAA	0.194
CATTTAAG	0.133
CGTAGCTC	0.0345
AAGAAGGC	-0.229
ACCGTTAC	-0.0343
GGGAATTA	0.0821

Sequence	PBM E-score
GACGCCTC	-0.0286
CACTCTAA	-0.0901
CATTATAG	0.0223
GCAGTTAC	0.00854
ATCTCTCG	-0.0499
GTTACAGA	-0.21
ATACGAAT	0.0593
CCCACGCC	-0.399
TCGATTCA	-0.008
CCTCATCA	-0.209
AGGGACTA	0.108
ATGGTGAC	-0.0377
AATTCCCG	0.158
AATGATGG	0.0357
CAGAACTC	-0.0381
GATAACAC	0.0932
CAAGAATG	-0.0175
ACATACAC	0.207
AGGTATCC	0.0502
CCCGGAGA	-0.00367
CGTGAAAA	0.186
GCTGACGA	-0.0445
GCGTGCGA	-0.0121
GTGCTGCA	-0.105
GGAGGAAA	-0.141

Sequence	PBM E-score
ATCAGGGC	-0.323
CGATAGGC	-0.0599
CTTCATCA	-0.143
CACAAGGA	0.0619
ACTGGGGG	-0.323
GTTCGAGA	0.11
ATAAAGCC	-0.151
AATTGCGG	0.0799
GCGACGCC	-0.162
CGGGTGAC	-0.0128
AACTTCCT	-0.0507
CAGTAGAA	0.0664
CTATTCTA	0.117
AGAATATG	0.0647
GCCGTCAC	0.00516
GATCCAAC	-0.0488
CGTTTACC	0.13
CTGAGCAG	-0.0675
CTTACAAC	0.0763
AACGCCGC	-0.0972
CCCTATAG	-0.174
GTAGTAAC	-0.057
TCAGTTAA	0.0941
ACTGCATG	0.169
CACACATC	0.00833

Sequence	PBM E-score
CAAGCAAA	0.1
CCATCTGA	0.0309
TTCAAAAA	-0.00355
TAAGCTTA	0.0947
TGGAGACA	0.27
GTCGGACA	0.427
GCTTTAGA	-0.0753
AGGATATA	0.064
CCAGTGTA	0.139
AATAGCCT	-0.0671
ACAGCATG	-0.0851
GGCGACCA	-0.247
GGCTGTTA	0.146
GTAGAACA	-0.244
GCTTTCTA	0.047
AACTAATT	0.0711
CGTCGTTA	0.019
CACACAAG	0.0895
CGGGACAC	0.376
CAATGTTA	0.0181
AAAACTGG	0.03
ACCTCGCC	-0.208
TATACATA	0.164
CGAAGCAC	0.0622
ACAGCACT	0.0423

Sequence	PBM E-score
ACTTTTTC	0.145
CAGCCTCA	-0.211
AAAATAGC	0.0251
AGTAACTG	-0.0668
AGCAAACT	0.122
ACGGACAA	0.474
CGATCGCG	0.162
CGTGTTGC	-0.116
CGGTTCTC	0.0445
CCGCTACG	-0.0932
GAGGCACC	-0.257
ACCTGTTG	-0.0438
CAAGGGGC	-0.17
TAATGACA	0.307
ACATCCGA	0.171
ACACAATG	0.27
AAGACGCG	-0.132
CACTTATC	0.108
CTGGGCAA	0.0233
